Source: the supplement of paper PMC8728848
Some of the results follow.

Legend:
Assay in all cases: glycan array binding signal (z-score within array); higher = stronger binding
Conditions in all cases: glycan notation: IUPAC condensed, linker removed
GalNAc3S(b1-4)GlcNAc = molecular target: GalNAc3S(b1-4)GlcNAc
Procedure, shortened: (§1)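 Columns mapping to the same glycan were averaged after glycan names were converted to IUPAC-condensed notation. The data come from 3228 arrays in the Consortium for Functional Glycomics database, limited to those with an available protein sequence. Binding is reported as a within-array Z-score averaged across arrays of one protein sequence and across linkers.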

GalNAc3S(b1-4)GlcNAc3S = molecular target: GalNAc3S(b1-4)GlcNAc3S
Procedure, shortened: as §1

[1] = molecular target: GalNAc3S(b1-4)[Fuc(a1-3)]GlcNAc
Procedure, shortened: as §1

GalNAc4S6S(b1-4)GlcNAc = molecular target: GalNAc4S6S(b1-4)GlcNAc
Procedure, shortened: as §1

GalNAc6S(b1-4)GlcNAc = molecular target: GalNAc6S(b1-4)GlcNAc
Procedure, shortened: as §1

Glc(a1-4)Glc = molecular target: Glc(a1-4)Glc
Procedure, shortened: as §1

[2] = molecular target: Glc(a1-4)Glc(a1-4)Glc(a1-4)Glc
Procedure, shortened: as §1

Glc(a1-6)Glc(a1-6)Glc = molecular target: Glc(a1-6)Glc(a1-6)Glc
Procedure, shortened: as §1

[3] = molecular target: Glc(a1-6)Glc(a1-6)Glc(a1-6)Glc
Procedure, shortened: as §1

Glc(b1-4)Glc = molecular target: Glc(b1-4)Glc
Procedure, shortened: as §1

Glc(b1-6)Glc = molecular target: Glc(b1-6)Glc
Procedure, shortened: as §1

GlcA(b1-3)Gal = molecular target: GlcA(b1-3)Gal
Procedure, shortened: as §1

GlcA(b1-3)GlcNAc = molecular target: GlcA(b1-3)GlcNAc
Procedure, shortened: as §1

GlcA(b1-6)Gal = molecular target: GlcA(b1-6)Gal
Procedure, shortened: as §1

[4] = molecular target: GlcA3S(b1-3)Gal(b1-4)GlcNAc(b1-2)Man
Procedure, shortened: as §1

[5] = molecular target: GlcA3S(b1-3)Gal(b1-4)GlcNAc(b1-3)Gal(b1-4)Glc
Procedure, shortened: as §1

[6] = molecular target: GlcNAc(a1-3)Gal(b1-4)GlcNAc
Procedure, shortened: as §1

[7] = molecular target: GlcNAc(a1-4)Gal(b1-3)GlcNAc
Procedure, shortened: as §1

[8] = molecular target: GlcNAc(a1-4)Gal(b1-4)GalNAc
Procedure, shortened: as §1

[9] = molecular target: GlcNAc(a1-4)Gal(b1-4)GlcNAc
Procedure, shortened: as §1

[10] = molecular target: GlcNAc(a1-4)Gal(b1-4)GlcNAc(b1-3)Gal(b1-4)Glc
Procedure, shortened: as §1

[11] = molecular target: GlcNAc(a1-4)Gal(b1-4)GlcNAc(b1-3)Gal(b1-4)GlcNAc
Procedure, shortened: as §1

[12] = molecular target: GlcNAc(a1-4)Gal(b1-4)GlcNAc(b1-3)Gal(b1-4)GlcNAc(b1-3)Gal(b1-4)GlcNAc
Procedure, shortened: as §1

[13] = molecular target: GlcNAc(a1-4)Gal(b1-4)GlcNAc(b1-3)Gal(b1-4)[Fuc(a1-3)]GlcNAc(b1-3)Gal(b1-4)[Fuc(a1-3)]GlcNAc
Procedure, shortened: as §1

[14] = molecular target: GlcNAc(a1-6)Gal(b1-4)GlcNAc
Procedure, shortened: as §1

[15] = molecular target: GlcNAc(b1-2)Gal(b1-3)GalNAc
Procedure, shortened: as §1

[16] = molecular target: GlcNAc(b1-2)Man(a1-3)[GlcNAc(b1-2)Man(a1-6)]Man(b1-4)GlcNAc(b1-4)GlcNAc
Procedure, shortened: as §1

[17] = molecular target: GlcNAc(b1-2)Man(a1-3)[GlcNAc(b1-2)Man(a1-6)]Man(b1-4)GlcNAc(b1-4)[Fuc(a1-6)]GlcNAc
Procedure, shortened: as §1

[18] = molecular target: GlcNAc(b1-2)Man(a1-3)[GlcNAc(b1-4)][GlcNAc(b1-2)Man(a1-6)]Man(b1-4)GlcNAc(b1-4)GlcNAc
Procedure, shortened: as §1

[19] = molecular target: GlcNAc(b1-2)Man(a1-3)[GlcNAc(b1-4)][GlcNAc(b1-2)Man(a1-6)]Man(b1-4)GlcNAc(b1-4)[Fuc(a1-6)]GlcNAc
Procedure, shortened: as §1

[20] = molecular target: GlcNAc(b1-2)[GlcNAc(b1-4)]Man(a1-3)[GlcNAc(b1-2)Man(a1-6)]Man(b1-4)GlcNAc(b1-4)GlcNAc
Procedure, shortened: as §1

[21] = molecular target: GlcNAc(b1-2)[GlcNAc(b1-4)]Man(a1-3)[GlcNAc(b1-4)][GlcNAc(b1-2)Man(a1-6)]Man(b1-4)GlcNAc(b1-4)GlcNAc
Procedure, shortened: as §1

[22] = molecular target: GlcNAc(b1-2)[GlcNAc(b1-4)]Man(a1-3)[GlcNAc(b1-4)][GlcNAc(b1-2)[GlcNAc(b1-6)]Man(a1-6)]Man(b1-4)GlcNAc(b1-4)GlcNAc
Procedure, shortened: as §1

[23] = molecular target: GlcNAc(b1-2)[GlcNAc(b1-4)]Man(a1-3)[GlcNAc(b1-4)][GlcNAc(b1-2)[GlcNAc(b1-6)]Man(a1-6)]Man(b1-4)GlcNAc(b1-4)[Fuc(a1-6)]GlcNAc
Procedure, shortened: as §1

[24] = molecular target: GlcNAc(b1-2)[GlcNAc(b1-6)]Man(a1-6)[GlcNAc(b1-2)Man(a1-3)]Man(b1-4)GlcNAc(b1-4)GlcNAc
Procedure, shortened: as §1

[25] = molecular target: GlcNAc(b1-2)[GlcNAc(b1-6)]Man(a1-6)[GlcNAc(b1-2)Man(a1-3)]Man(b1-4)GlcNAc(b1-4)[Fuc(a1-6)]GlcNAc
Procedure, shortened: as §1

[26] = molecular target: GlcNAc(b1-2)[GlcNAc(b1-6)]Man(a1-6)[GlcNAc(b1-4)][GlcNAc(b1-2)Man(a1-3)]Man(b1-4)GlcNAc(b1-4)GlcNAc
Procedure, shortened: as §1

GlcNAc(b1-3)Fuc = molecular target: GlcNAc(b1-3)Fuc
Procedure, shortened: as §1

GlcNAc(b1-3)Gal = molecular target: GlcNAc(b1-3)Gal
Procedure, shortened: as §1

[27] = molecular target: GlcNAc(b1-3)Gal(b1-3)GalNAc
Procedure, shortened: as §1

GlcNAc(b1-3)Gal(b1-4)Glc = molecular target: GlcNAc(b1-3)Gal(b1-4)Glc
Procedure, shortened: as §1

[28] = molecular target: GlcNAc(b1-3)Gal(b1-4)GlcNAc
Procedure, shortened: as §1

[29] = molecular target: GlcNAc(b1-3)Gal(b1-4)GlcNAc(b1-2)Man(a1-3)[GlcNAc(b1-3)Gal(b1-4)GlcNAc(b1-2)Man(a1-6)]Man(b1-4)GlcNAc(b1-4)GlcNAc
Procedure, shortened: as §1

[30] = molecular target: GlcNAc(b1-3)Gal(b1-4)GlcNAc(b1-2)Man(a1-3)[GlcNAc(b1-3)Gal(b1-4)GlcNAc(b1-2)Man(a1-6)]Man(b1-4)GlcNAc(b1-4)[Fuc(a1-6)]GlcNAc
Procedure, shortened: as §1

[31] = molecular target: GlcNAc(b1-3)Gal(b1-4)GlcNAc(b1-2)[GlcNAc(b1-3)Gal(b1-4)GlcNAc(b1-6)]Man(a1-6)[GlcNAc(b1-3)Gal(b1-4)GlcNAc(b1-2)Man(a1-3)]Man(b1-4)GlcNAc(b1-4)GlcNAc
Procedure, shortened: as §1

B1: Jacalin (Artocarpus integrifolia) (protein)
chain: MAYSSLLSLSVLALLFSISSADTRKWFLANGINQNPIGIIEAAVGVSEDLLNLNGMEAKNDEQSGISQTVIVGPWGAKVSTSSNGKAFDDGAFTGIREINLSYNKETAIGDFQVVYDLNGSPYVGQNHKSFITGFTPVKISLDFPSEYIMEVSGYTGNVSGYVVVRSLTFKTNKKTYGPYGVTSGTPFNLPIENGLIVGFKGSIGYWLDYFSMYLSL
GalNAc3S(b1-4)GlcNAc
  glycan array binding signal (z-score): -0.268
GalNAc3S(b1-4)GlcNAc3S
  glycan array binding signal (z-score): -0.28
[1]
  glycan array binding signal (z-score): -0.278
GalNAc4S6S(b1-4)GlcNAc
  glycan array binding signal (z-score): -0.291
GalNAc6S(b1-4)GlcNAc
  glycan array binding signal (z-score): -0.28
Glc(a1-4)Glc
  glycan array binding signal (z-score): -0.236
[2]
  glycan array binding signal (z-score): -0.249
Glc(a1-6)Glc(a1-6)Glc
  glycan array binding signal (z-score): -0.273
[3]
  glycan array binding signal (z-score): -0.244
Glc(b1-4)Glc
  glycan array binding signal (z-score): -0.246
Glc(b1-6)Glc
  glycan array binding signal (z-score): -0.271
GlcA(b1-3)Gal
  glycan array binding signal (z-score): -0.264
GlcA(b1-3)GlcNAc
  glycan array binding signal (z-score): -0.28
GlcA(b1-6)Gal
  glycan array binding signal (z-score): -0.271
[4]
  glycan array binding signal (z-score): -0.262
[5]
  glycan array binding signal (z-score): -0.268
[6]
  glycan array binding signal (z-score): 1.26
[7]
  glycan array binding signal (z-score): 0.435
[8]
  glycan array binding signal (z-score): 0.625
[9]
  glycan array binding signal (z-score): 1.08
[10]
  glycan array binding signal (z-score): 1.73
[11]
  glycan array binding signal (z-score): 2.04
[12]
  glycan array binding signal (z-score): 2.63
[13]
  glycan array binding signal (z-score): 0.679
[14]
  glycan array binding signal (z-score): 1.29
[15]
  glycan array binding signal (z-score): 2.21
[16]
  glycan array binding signal (z-score): 0.143
[17]
  glycan array binding signal (z-score): 0.257
[18]
  glycan array binding signal (z-score): -0.094
[19]
  glycan array binding signal (z-score): -0.162
[20]
  glycan array binding signal (z-score): 1.34
[21]
  glycan array binding signal (z-score): 1.04
[22]
  glycan array binding signal (z-score): 1.01
[23]
  glycan array binding signal (z-score): 1.82
[24]
  glycan array binding signal (z-score): 0.358
[25]
  glycan array binding signal (z-score): 0.94
[26]
  glycan array binding signal (z-score): 0.105
GlcNAc(b1-3)Fuc
  glycan array binding signal (z-score): 0.365
GlcNAc(b1-3)Gal
  glycan array binding signal (z-score): 0.629
[27]
  glycan array binding signal (z-score): 1.49
GlcNAc(b1-3)Gal(b1-4)Glc
  glycan array binding signal (z-score): -0.123
[28]
  glycan array binding signal (z-score): 0.111
[29]
  glycan array binding signal (z-score): 1.57
[30]
  glycan array binding signal (z-score): 1.4
[31]
  glycan array binding signal (z-score): 1.55
